Over roughly 81,000 sequences, “one-hybrid fitness for binding parS DNA” has its median near -0.17; the highest 2% begin near 0.51. The list shows a part of the results.
B1: Caulobacter ParB omega fusion; a variant is named by its letters at X, in order, B8GW30 (parent)
chain: MESVVVGEPGMSEGRRGLGRGLSALLGEVDAAPAQAPGEQLGGSREAPIEILQRNPDQPRRTFREEDLEDLSNSIREKGVLQPILVRPSPDTAGEYQIVAGERAWRAAQRAGLKTVPIMVRELDDLAVLEIGIIENVQRADLNVLEEALSYKVLMEKFERTQENIAQTIGKSXSHVANXMRLLXLPDEVQSYLVSGELTAXHARAIAAAADPVALAKQIIEGGLSVRETEALARKAPNLSAGKSKGGRPPRVKDTDTQALESDLSSVLGLDVSIDHRGSTGTLTITYATLEQLDDLCNRLTRGI

Variants of: B1
Test: one-hybrid fitness for binding parS DNA (scaled: cognate 1, non-cognate 0); higher = stronger binding
Conditions: with parS DNA site
Method in brief: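 Values were rescaled so that cognate is 1 and non-cognate is 0. Each is a fitness, the log change in a variant's read ratio to wild type from Illumina reads of plasmids before and after selection, with three replicate libraries pooled and variants under 10 reads dropped. Selection of the Caulobacter ParB libraries, four specificity codons randomised, used E. coli USO with a HIS3 reporter, site 19 bp from the promoter, on M9-minus-histidine with 0.1 mM IPTG and 5 mM 3-AT for 48 hours at 37°C.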

Variant	one-hybrid fitness for binding parS DNA
CHCI	≤ 0.2
LTVG	≤ 0.2
PLHT	≤ 0.2
MSNG	≤ 0.2
TQLC	≤ 0.2
CQKF	≤ 0.2
PVCD	≤ 0.2
VMKA	≤ 0.2
HREG	≤ 0.2
ATNG	≤ 0.2
PFRR	≤ 0.2
FDPS	≤ 0.2
FRAW	≤ 0.2
PHER	≤ 0.2
QFNK	≤ 0.2
TTDP	≤ 0.2
FFTE	≤ 0.2
CAVK	≤ 0.2
VWAL	≤ 0.2
AAYR	≤ 0.2
NVGM	≤ 0.2
DRAG	≤ 0.2
LVHI	≤ 0.2
MEVG	≤ 0.2
TQHM	≤ 0.2

Variant	one-hybrid fitness for binding parS DNA
AVPP	≤ 0.2
QHVY	≤ 0.2
CWMS	≤ 0.2
QTRL	≤ 0.2
TMLQ	≤ 0.2
KDPN	≤ 0.2
IYYS	≤ 0.2
AHSY	≤ 0.2
NRPI	≤ 0.2
HDAT	≤ 0.2
RTRM	0.517
SYHF	≤ 0.2
RHPF	≤ 0.2
RRVI	≤ 0.2
DCLG	≤ 0.2
GPKE	≤ 0.2
YLGT	≤ 0.2
GPSR	≤ 0.2
LQAV	≤ 0.2
NHFP	≤ 0.2
LAYS	≤ 0.2
HIIF	≤ 0.2
KSPV	≤ 0.2
WHRV	≤ 0.2
VFER	≤ 0.2

Variant	one-hybrid fitness for binding parS DNA
PPSN	≤ 0.2
PWQT	≤ 0.2
GSVC	≤ 0.2
RIYA	0.613
FTSA	≤ 0.2
MQSM	0.22
SRVR	≤ 0.2
SVSK	≤ 0.2
PGAV	≤ 0.2
LRIY	≤ 0.2
MEGC	≤ 0.2
ELTS	≤ 0.2
HMSR	≤ 0.2
KAWL	≤ 0.2
QEYS	≤ 0.2
FKVC	≤ 0.2
RLCN	0.457
ALSI	≤ 0.2
ARSP	≤ 0.2
NSPD	≤ 0.2
APCL	≤ 0.2
RYDW	≤ 0.2
KLWT	≤ 0.2
TPNQ	≤ 0.2
SDSM	≤ 0.2

Variant	one-hybrid fitness for binding parS DNA
ATLW	≤ 0.2
WVWG	≤ 0.2
NTKC	≤ 0.2
PIGF	≤ 0.2
QNYM	≤ 0.2
QMLT	≤ 0.2
DPRM	≤ 0.2
QKVQ	≤ 0.2
PVRI	≤ 0.2
PLLW	≤ 0.2
NTSW	≤ 0.2
SKLR	≤ 0.2
RLHQ	≤ 0.2
HMRG	≤ 0.2
TIKV	≤ 0.2
HAQM	≤ 0.2
GMAG	≤ 0.2
NRVE	≤ 0.2
NLVV	≤ 0.2
YWSM	≤ 0.2
TELT	≤ 0.2
VWRS	≤ 0.2
